Among all 310,000 compounds or so, about 2,200 (0.71%) showed an effect of 50% or more. The effect is printed as a negative number. This is one part of the list.
target: human ether-à-go-go-related gene (hERG) potassium channel (human, UniProt Q12809); experiment: primary screen, population patch clamp on CHO cells stably expressing hERG
Sequence (Q12809 whole entry, looked up): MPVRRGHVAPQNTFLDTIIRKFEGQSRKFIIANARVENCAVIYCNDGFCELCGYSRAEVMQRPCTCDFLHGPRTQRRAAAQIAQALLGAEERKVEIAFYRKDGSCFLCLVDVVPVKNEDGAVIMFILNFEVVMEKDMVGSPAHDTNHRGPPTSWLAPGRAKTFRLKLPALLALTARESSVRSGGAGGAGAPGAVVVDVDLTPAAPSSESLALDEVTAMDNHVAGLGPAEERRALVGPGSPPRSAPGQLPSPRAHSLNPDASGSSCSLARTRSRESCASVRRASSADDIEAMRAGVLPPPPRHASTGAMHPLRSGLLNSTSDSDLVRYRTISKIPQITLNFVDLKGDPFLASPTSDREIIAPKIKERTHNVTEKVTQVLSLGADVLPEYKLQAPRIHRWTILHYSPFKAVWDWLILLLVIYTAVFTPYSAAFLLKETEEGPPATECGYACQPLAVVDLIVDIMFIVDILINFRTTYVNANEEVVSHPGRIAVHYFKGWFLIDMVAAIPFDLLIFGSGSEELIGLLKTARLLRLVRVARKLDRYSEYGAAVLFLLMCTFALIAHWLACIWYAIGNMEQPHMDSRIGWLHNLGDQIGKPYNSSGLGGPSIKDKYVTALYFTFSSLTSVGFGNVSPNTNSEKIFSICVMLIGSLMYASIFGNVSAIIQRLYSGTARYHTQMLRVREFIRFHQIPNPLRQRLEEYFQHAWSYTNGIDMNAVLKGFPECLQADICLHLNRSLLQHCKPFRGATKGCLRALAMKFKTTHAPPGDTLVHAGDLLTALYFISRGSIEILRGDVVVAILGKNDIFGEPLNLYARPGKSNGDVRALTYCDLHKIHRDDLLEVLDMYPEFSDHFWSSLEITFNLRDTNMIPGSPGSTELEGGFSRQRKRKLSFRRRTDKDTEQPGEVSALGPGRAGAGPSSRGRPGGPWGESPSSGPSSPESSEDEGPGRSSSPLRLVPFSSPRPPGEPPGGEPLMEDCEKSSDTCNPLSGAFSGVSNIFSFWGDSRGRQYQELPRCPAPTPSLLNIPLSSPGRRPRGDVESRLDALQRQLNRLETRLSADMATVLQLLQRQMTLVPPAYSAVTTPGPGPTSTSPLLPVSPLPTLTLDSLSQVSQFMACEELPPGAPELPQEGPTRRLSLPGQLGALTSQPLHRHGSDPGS

Row | Compound | hERG current change (%, negative = inhibition) at 1uM
1 | CCOC(=O)C(C)Sc1nc2c(c(=O)[nH]c(=O)n2C)n1C/C=C(/C)Cl (centres unmarked) | -62.6%
2 | O=C(COc1ccc(S(=O)(=O)N2CCOCC2)cc1)NCC1CCCO1 (centres unmarked) | -1.87%
3 | Cc1cccc(-n2c(SCC(=O)N(C)C3CCS(=O)(=O)C3)nc3ccccc3c2=O)c1C (centres unmarked) | 13.9%
4 | CCOc1ccccc1/C=N/NC(=O)c1cccc(Cl)c1 | 9.71%
5 | O=c1[nH]c(=O)n(-c2ccccc2F)c(O)c1C=NCCC1=CCCCC1 | 18.8%
6 | COc1ccc(OC)c(C2C(C(=O)Nc3ccc(F)cc3)=C(C)Nc3nc(CCCO)nn32)c1 (centres unmarked) | 5.26%
7 | O=C(CCn1c(=S)oc2ccccc21)NC1CCCCC1 | 12.7%
8 | Cc1cc(C)c(S(C)(=O)=O)c(S(=O)(=O)c2ccc(Cl)cc2)n1 | 0.591%
9 | C=CCN1C(=O)C2(OCCCO2)c2ccccc21 | 11%
10 | COc1ccc(CN2CCN(C3CCC3)CC2CCO)cc1C (centres unmarked) | 13%
11 | COc1ccccc1NS(=O)(=O)c1cc(NC(=O)C(C)C)ccc1N1CCCCC1 | 14.8%
12 | O=C(CNC(=O)c1ccc2c(c1)OCO2)N/N=C(Br)/C=C/c1ccccc1 | 7.92%
13 | Cc1cc(C(=O)CSc2ncccn2)c(C)n1-c1cccc(F)c1 | -0.353%
14 | COc1ccc(N2CCN(C(=O)CCc3nnc4ccc(N5CCCC5)nn34)CC2)cc1 | 8.92%
15 | COc1ccccc1CC(=O)Nc1ccc2c(C)cc(=O)oc2c1 | 6.27%
16 | COc1ccccc1-n1c2nc3ccccc3nc2c2c(=O)n(-c3cc(C)cc(C)c3)cnc21 | -5.14%
17 | COc1ccc(Cl)cc1NC(=O)C/C(C)=N/NC(=O)COc1ccc(C)cc1 | -3.16%
18 | NC(=O)CN1CCN(c2cccc(Cl)c2)CC1 | 11.3%
19 | COc1ccc(C(=O)OCC(=O)N2CCCCCC2)cc1S(=O)(=O)N1CCOCC1 | 3.49%
20 | COc1ccc2oc(C(=O)Nc3ccccc3N3CCOCC3)c(C)c2c1 | 9.17%
21 | COCCn1c(CN2CCc3ccccc3C2)nc2c1c(=O)n(C)c(=O)n2C | 4.77%
22 | Cn1c(-c2ccccc2)cccc1=O | 2.27%

Row | Compound | hERG current change (%, negative = inhibition) at 1uM
23 | COC(=O)c1ccc(COC(=O)c2c(C)nn(Cc3ccccc3Cl)c2Cl)o1 | 16.3%
24 | O=C(c1cccc(F)c1)N1CCN(C(=O)c2cc3ncc(Br)cn3n2)CC1 | 15%
25 | O=C(Nc1ccccc1)C1CC(=O)N(C2CCCCC2)C1 (centres unmarked) | 11.1%
26 | Cc1ccc(NC(=O)Cn2nnc(C(=O)Nc3ccc(C)c(C)c3)c2N)cc1 | 6.54%
27 | CCOC(=O)c1c(NC(=O)CSc2n[nH]c(CNc3ccccc3)n2)sc(C)c1C | 6.94%
28 | COc1ccc(-n2c(=O)c3c4c(sc3n(CC(=O)Nc3cc(C)[nH]n3)c2=O)CCCC4)c(OC)c1 | 10.2%
29 | O=C(Nc1ccc(O)c2c(=O)cc(-c3cccc(Cl)c3)oc12)c1cccc(Cl)c1 | 9.01%
30 | COc1cccc(CN2CCN(Cc3cccc(Oc4ccccc4)c3)CC2)c1OC.O=C(O)C(=O)O | 13.6%
31 | COC(=O)c1ccc(CNC(=O)c2ccc3c(c2)NC(=O)CS3)cc1 | 4.55%
32 | CC[C@H](C)[C@@H]1O[C@@]2(C=CC1C)CC1C[C@@H](CC=C(C)C(O[C@H]3CC(OC)C(O[C@H]4CC(OC)C(O)C(C)O4)C(C)O3)C(C)C=CC=C3CO[C@@H]4C(O)C(C)=C[C@@H](C(=O)O1)[C@]34O)O2 (some centres unmarked) | -0.942%
33 | CCN1CCN(Cc2ccc(NC(=O)Nc3ccccc3OC)cc2)CC1 | 9.01%
34 | CN(C)S(=O)(=O)c1ccc(NC(=O)/C=C/c2ccccc2Cl)cc1 | 3.66%
35 | O=C1CCCc2c1nc(-c1ccccc1)n2O | 6.68%
36 | CC(C)Cc1ccccc1O | 9.67%
37 | COc1ccc(OC(C)c2ccc(C#N)c(=O)[nH]2)cc1 (centres unmarked) | 2.85%
38 | CC(=O)Nc1nonc1NC(=O)COc1ccccc1 | 7.15%
39 | CNC(=O)C(=O)N1CCC2(CC1)OCCN2S(=O)(=O)c1ccc(C)cc1 | 2.89%
40 | Cn1c(=O)c2c(nc(CN3CCN(C(=O)c4ccco4)CC3)n2CC(N)=O)n(C)c1=O | 15.4%
41 | Cc1ccc(Nc2nnc(SCC(=O)NCCN3C(=O)CSC3=O)s2)cc1C | 10.7%
42 | CC(=O)N1c2ccc(S(=O)(=O)NCCC(=O)Nc3ccc(C)cn3)cc2CC1C (centres unmarked) | 13.4%
43 | O=C1OC(c2ccc(Cl)cc2)=N/C1=C\c1cccnc1 | 13.5%
44 | CCOC(=O)N1CCN(C(=O)CN(c2ccc(C)c(C)c2)S(=O)(=O)c2ccccc2)CC1 | 6.04%

Row | Compound | hERG current change (%, negative = inhibition) at 1uM
45 | Cc1nc2c(C)cccc2c2c1CCS2 | -0.722%
46 | O=C(Nc1ccc(-n2cnnn2)cc1)C1CCCN1C(=O)Nc1ccc(Br)cc1 (centres unmarked) | -47.3%
47 | O=C(CCn1nc(-c2ccccc2)ccc1=O)N1CCCC1 | -4.81%
48 | Cc1ccc(Sc2cc(C(=O)NCCN(C)C)c3ccccc3n2)cc1 | -6.33%
49 | Oc1cccc(NC(=S)Nc2cccnc2)c1 | 11.9%
50 | COC(=O)c1nn(-c2ccccc2)c(Cl)c1/C=N/OCc1ccc(Cl)cc1Cl | 17.9%
51 | CCOC(=O)N1CCN(CCC(=O)Nc2cc(OC)ccc2OC)CC1 | 7.28%
52 | Cc1ccn(CCC(=O)N2CCCC(CCC(=O)N3CCN(c4ccccn4)CC3)C2)n1 (centres unmarked) | 7.62%
53 | Cc1ccc(N2C(=O)C3C4C=CC(CNC(=S)N5CCN(c6cccc(C)c6)C(C)C5)(O4)C3C2=O)cc1 (centres unmarked) | -11%
54 | COc1ccc(CN2C(=O)c3cccnc3C2=O)cc1S(=O)(=O)NCc1ccccc1 | 8.83%
55 | CS(=O)(=O)N(CC(=O)Nc1ccccc1F)C1CCCCC1 | 21.9%
56 | CCOC(=O)C1CCCN(Cc2ccc(OCc3ccccc3)c(OC)c2)C1.O=C(O)C(=O)O (centres unmarked) | -24.1%
57 | CN(C)S(=O)(=O)n1cnc(-c2ccccc2)c1-c1ccccc1 | 11.4%
58 | Fc1ccc(NC(=S)NC2CC3CCCC(C2)N3Cc2cccs2)cc1 (centres unmarked) | -21.3%
59 | COc1ccc(C(=O)NCC(=O)NCC(=O)OCc2ccc(Br)cc2)cc1 | 4.68%
60 | CC(Oc1ccc(Cl)cc1Cl)C(=O)/C=C/N(C)C (centres unmarked) | -1.11%
61 | COc1ccccc1CCN1C(=S)NC(C)(C)CC1(C)O (centres unmarked) | 9.42%
62 | O=C(Nc1nc2ccccc2s1)c1cc2c(s1)-c1ccccc1OC2 | 4.38%
63 | O=C(NCCNC(=O)c1ccccc1)c1ccccc1 | 8.29%
64 | Cc1nn(CC(=O)NC2CCCCC2)c(=O)c2cccn12 | 7.64%
65 | CCCc1nc(C)cc(N2CCN(c3ccccc3)CC2)n1.Cl | 0.598%
66 | CCCNC(=O)Cn1sc2nc(C)cc(C)c2c1=O | 7.27%

Row | Compound | hERG current change (%, negative = inhibition) at 1uM
67 | COc1cccc(C2CCCN2Cc2nc(-c3cnccn3)no2)c1 (centres unmarked) | 7.41%
68 | COc1ccc(S(=O)(=O)N2CCCN(CC(=O)C(C)(C)C)CC2)cc1 | 8.1%
69 | COc1cc(C2Nc3c(F)cccc3C3C=CCC32)cc(Br)c1OC (centres unmarked) | 9.77%
70 | COc1ccc2[nH]c(=O)c(CN(CCCN(C)C)C(=O)Nc3ccccc3)cc2c1 | -1.4%
71 | O=[N+]([O-])c1cccc(/C=N/n2c(C3CCCCC3)n[nH]c2=S)c1 | 16.4%
72 | CCOC(=O)N1CCN(CC(=O)Nc2sc(CC)cc2C(=O)c2ccc(OC)cc2)CC1 | 10.6%
73 | O=C(O)C1=C[C@@H](c2ccc3c(c2)OCO3)C[C@@H](OCc2ccc(CO)cc2)O1 | 6.33%
74 | Cc1nn(CC(=O)Nc2c(F)c(F)cc(F)c2F)c(=O)c2cccn12 | 8.94%
75 | Cc1c(C(C)C)c(=O)n(-c2ccc(S(=O)(=O)NC3CC3)cc2)n1C | 19.4%
76 | Cc1cc(C)c2ccc(=O)n(CC(=O)N/N=C/c3ccccc3Cl)c2n1 | 13.9%
77 | COC(=O)c1nnn(-c2nonc2N)c1CSCCO | 16%
78 | O=C(CSc1nnnn1C1CCCC1)NCCc1ccccc1 | -0.854%
79 | Cc1cc(-c2nnc(SCC(=O)Nc3ccc(S(N)(=O)=O)cc3)n2N)n[nH]1 | -17.3%
80 | CN(C)c1ccc(C(=O)c2ccccc2C(=O)O)c(O)c1 | 13.2%
81 | COc1ccccc1NC(=O)c1oc2ccccc2c1NC(=O)C1CC1 | 6.86%
82 | CC1CCCN(S(=O)(=O)c2ccc(C(=O)Nc3nnc(C4=COCCO4)o3)cc2)C1 (centres unmarked) | 18.1%
83 | COC1=C(C)C(=O)O[C@]12C(=O)C(C)=C1CCCCN3[C@H]([C@@H]4C[C@H](C)C(=O)O4)CC[C@]132 | 5.01%
84 | Cc1nn(-c2ccccc2)c(Cl)c1/C=C(\C#N)C(=O)NC(C)C | -4.23%
85 | COc1ccc(OC)c(Nc2nc(-c3c(C)nc4ncccn34)cs2)c1 | 4.72%
86 | COC(=O)c1ccccc1NC(=O)C/C(C)=N/NC(=O)CC#N | 2.83%
